# Measured values taken from ChEMBL document CHEMBL4689842, “EUbOPEN Chemogenomics Library wave 1” (2021).
# Not every entry of the source has a single result; some have several. The other results are left out here. The source may hold further records. Values given together are repeated measurements across runs, samples, wells, individuals or studies.
# What was measured:
# Type in all cases: toxicity, cell-based
# Fibroblast = test: Multiplex assay against human fibroblast; settings: 10 µM, compound concentration 10 uM
# Procedure, shortened: (§1)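 Cells were classed with CellPathfinder machine-learning gating, first as Hoechst high-intensity objects or normal cells, then (normal cells) as healthy, pyknosed or fragmented nuclei, and finally (pyknosed cells) as mitotic or apoptotic. Staining of live cells at seeding used Hoechst33342, BioTracker Green Microtubule Cytoskeleton Dye, MitoTracker Red and Annexin V Alexa Fluor 680, with imaging on a CQ1 microscope at 37°C and 5% CO2 after compound addition. Tubulin, mitochondrial-mass and membrane-permeability phenotypes are per cents of healthy-nucleus cells.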
# HEK-293T = test: Multiplex assay against HEK293T; settings: human, 10 µM, compound concentration 10 uM; procedure, shortened: as §1;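 as to Population Tubulin-Different-Phenotype (%): share of the cells with healthy nuclei that show this phenotype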
# U2OS = test: Multiplex assay against U2OS; settings: human, 10 µM, compound concentration 10 uM; procedure, shortened: as §1
smiles,measurement,setting,value
C1=N/C2=N/c3ccc(OCCN4CCCC4)c(c3)COC/C=C\COCc3cccc(c3)C(=C1)N2,Population Healthy Nuclei (%),"Fibroblast; 12 h, replicate 1","15%, 52%, 54%"
same,Population Mitochondria Different-Phenotype (%),"Fibroblast; 12 h, replicate 1","75%, 48%, 5%"
same,Population Pyknosed Nuclei (%),"Fibroblast; 12 h, replicate 1","61%, 27%, 12%"
same,Population Tubulin-Different-Phenotype (%),"Fibroblast; 12 h, replicate 1","75%, 68%, 10%"
same,Total Cell Count,"Fibroblast; 12 h, replicate 1","89, 287, 212"
same,Population Healthy Nuclei (%),"Fibroblast; 12 h, replicate 2","9%, 34%, 17%"
same,Population Hoechst High Intensity Objects (%),"Fibroblast; 12 h, replicate 2","39%, 31%, 10%"
same,Population Membrane Permeable-Phenotype (%),"Fibroblast; 12 h, replicate 2","16%, 5%, 90%"
same,Population Mitochondria Different-Phenotype (%),"Fibroblast; 12 h, replicate 2","33%, 0%, 100%"
same,Population Mitotic Cells (%),"Fibroblast; 12 h, replicate 2","31%, 55%, 9%"
same,Population Tubulin-Different-Phenotype (%),"Fibroblast; 12 h, replicate 2","16%, 29%, 100%"
same,Population Healthy Nuclei (%),"Fibroblast; 24 h, replicate 1","15%, 25%, 52%"
same,Population Membrane Permeable-Phenotype (%),"Fibroblast; 24 h, replicate 1",36% and 2%
same,Population Mitochondria Different-Phenotype (%),"Fibroblast; 24 h, replicate 1","36%, 82%, 5%"
same,Population Pyknosed Nuclei (%),"Fibroblast; 24 h, replicate 1","48%, 42%, 13%"
same,Total Cell Count,"Fibroblast; 24 h, replicate 1","83, 288, 243"
same,Population Fragmented Nuclei (%),"Fibroblast; 24 h, replicate 2","67%, 56%, 4%"
same,Population Healthy Nuclei (%),"Fibroblast; 24 h, replicate 2",9% and 30%
same,Population Membrane Permeable-Phenotype (%),"Fibroblast; 24 h, replicate 2","33%, 0%, 81%"
same,Population Mitochondria Different-Phenotype (%),"Fibroblast; 24 h, replicate 2","33%, 0%, 100%"
same,Population Mitotic Cells (%),"Fibroblast; 24 h, replicate 2","7%, 42%, 3%"
same,Population Pyknosed Nuclei (%),"Fibroblast; 24 h, replicate 2","22%, 12%, 70%"
same,Population Tubulin-Different-Phenotype (%),"Fibroblast; 24 h, replicate 2","16%, 17%, 100%"
same,Population Apoptotic (%),"HEK-293T; 12 h, replicate 1","46%, 26%, 89%"
same,Population Healthy Nuclei (%),"HEK-293T; 12 h, replicate 1","12%, 31%, 0%"
same,Population Mitochondria Different-Phenotype (%),"HEK-293T; 12 h, replicate 1","40%, 20%, 100%"
same,Population Mitotic Cells (%),"HEK-293T; 12 h, replicate 1","53%, 73%, 10%"
same,Population Tubulin-Different-Phenotype (%),"HEK-293T; 12 h, replicate 1","45%, 49%, 0%"
same,Population Apoptotic (%),"HEK-293T; 12 h, replicate 2","50%, 83%, 20%"
same,Population Fragmented Nuclei (%),"HEK-293T; 12 h, replicate 2","11%, 5%, 2%"
same,Population Healthy Nuclei (%),"HEK-293T; 12 h, replicate 2","33%, 6%, 58%"
same,Population Hoechst High Intensity Objects (%),"HEK-293T; 12 h, replicate 2","22%, 20%, 5%"
same,Population Mitotic Cells (%),"HEK-293T; 12 h, replicate 2","49%, 16%, 79%"
same,Total Cell Count,"HEK-293T; 12 h, replicate 2","735, 219, 724"
same,Population Healthy Nuclei (%),"HEK-293T; 24 h, replicate 1","0%, 15%, 33%"
same,Population Mitochondria Different-Phenotype (%),"HEK-293T; 24 h, replicate 1","0%, 44%, 30%"
same,Population Mitotic Cells (%),"HEK-293T; 24 h, replicate 1","12%, 41%, 70%"
same,Population Tubulin-Different-Phenotype (%),"HEK-293T; 24 h, replicate 1","0%, 53%, 64%"
same,Population Apoptotic (%),"HEK-293T; 24 h, replicate 2","86%, 74%, 24%"
same,Population Fragmented Nuclei (%),"HEK-293T; 24 h, replicate 2","12%, 24%, 2%"
same,Population Healthy Nuclei (%),"HEK-293T; 24 h, replicate 2","7%, 19%, 61%"
same,Population Membrane Permeable-Phenotype (%),"HEK-293T; 24 h, replicate 2",30% and 4%
same,Population Mitotic Cells (%),"HEK-293T; 24 h, replicate 2","13%, 25%, 75%"
same,Total Cell Count,"HEK-293T; 24 h, replicate 2","213, 721, 724"
same,Population Healthy Nuclei (%),"U2OS; 12 h, replicate 1","19%, 13%, 53%"
same,Population Membrane Permeable-Phenotype (%),"U2OS; 12 h, replicate 1","16%, 78%, 38%"
same,Population Mitochondria Different-Phenotype (%),"U2OS; 12 h, replicate 1",94% and 23%
same,Population Mitotic Cells (%),"U2OS; 12 h, replicate 1","12%, 11%, 44%"
same,Population Healthy Nuclei (%),"U2OS; 12 h, replicate 2","18%, 17%, 58%"
same,Population Membrane Permeable-Phenotype (%),"U2OS; 12 h, replicate 2","45%, 90%, 27%"
same,Population Mitochondria Different-Phenotype (%),"U2OS; 12 h, replicate 2","50%, 100%, 25%"
same,Population Mitotic Cells (%),"U2OS; 12 h, replicate 2","10%, 9%, 31%"
same,Population Healthy Nuclei (%),"U2OS; 24 h, replicate 1","0%, 14%, 56%"
same,Population Membrane Permeable-Phenotype (%),"U2OS; 24 h, replicate 1","100%, 84%, 30%"
same,Population Mitotic Cells (%),"U2OS; 24 h, replicate 1",1% and 17%
same,Population Fragmented Nuclei (%),"U2OS; 24 h, replicate 2","52%, 4%, 15%"
same,Population Healthy Nuclei (%),"U2OS; 24 h, replicate 2","10%, 25%, 65%"
same,Population Hoechst High Intensity Objects (%),"U2OS; 24 h, replicate 2","16%, 32%, 9%"
same,Population Pyknosed Nuclei (%),"U2OS; 24 h, replicate 2","37%, 70%, 19%"
Cc1c(Oc2ccc(F)cc2)c(OC(C)C)nn1-c1ccc(C2CC2)cn1 [IPP/CNRS-A019],Population Apoptotic (%),"Fibroblast; 12 h, replicate 2",27% and 100%
same,Population Membrane Permeable-Phenotype (%),"Fibroblast; 12 h, replicate 2",22% and 7%
same,Population Mitotic Cells (%),"Fibroblast; 12 h, replicate 2",72% and 0%
same,Population Pyknosed Nuclei (%),"Fibroblast; 12 h, replicate 2",17% and 4%
same,Population Tubulin-Different-Phenotype (%),"Fibroblast; 12 h, replicate 2",6% and 35%
same,Population Apoptotic (%),"Fibroblast; 24 h, replicate 2",16% and 100%
same,Population Mitochondria Different-Phenotype (%),"Fibroblast; 24 h, replicate 2",17% and 5%
same,Population Mitotic Cells (%),"Fibroblast; 24 h, replicate 2",83% and 0%
same,Population Pyknosed Nuclei (%),"Fibroblast; 24 h, replicate 2",9% and 1%
same,Population Tubulin-Different-Phenotype (%),"Fibroblast; 24 h, replicate 2",3% and 27%
same,Population Tubulin-Different-Phenotype (%),"HEK-293T; 12 h, replicate 2",21% and 5%
same,Population Mitochondria Different-Phenotype (%),"HEK-293T; 24 h, replicate 2",1% and 12%
same,Population Apoptotic (%),"U2OS; 24 h, replicate 2",77% and 16%
same,Population Mitotic Cells (%),"U2OS; 24 h, replicate 2",22% and 83%
O=C(O)c1ccc2c(c1)nc(Nc1cccc(Cl)c1)c1ccncc12 [SILMITASERTIB],Population Tubulin-Different-Phenotype (%),"Fibroblast; 24 h, replicate 1",5% and 1%
same,Population Mitochondria Different-Phenotype (%),"Fibroblast; 24 h, replicate 2",7% and 25%
same,Population Tubulin-Different-Phenotype (%),"HEK-293T; 12 h, replicate 2",20% and 5%
same,Population Tubulin-Different-Phenotype (%),"HEK-293T; 24 h, replicate 2",32% and 4%
same,Population Mitochondria Different-Phenotype (%),"U2OS; 12 h, replicate 1",10% and 35%
